Structures are written as SMILES. The whole screen tested about 52,000 compounds, of which about 4,300 (8.3%) were called active. No stated cut-off is given here; in the data, active means survival mostly below about 52% (no sharp cut-off); inactive means mostly above about 56%. Some of the results follow.

The test concerns DeltatarO mutant. Briefly: S. aureus survival, RN4220 and DeltatarO strains – OD600, teichoic acid synthesis inhibitors, primary screen (AID 463173). The settings on record: S. aureus RN4220 wild type/DeltatarO growth, OD600, 18 h, stronger effect = lower value, screened at 18.75 µg/mL (by protocol).
In the case of `CC(C)CCNC(=O)c1cc(-c2cccnc2)nc2ccc(S(=O)(=O)N3CCC(C)CC3)cc12`, the survival is inactive: 94%.
Take `O=C(CSc1nc2c([nH]c3ccccc32)c(=O)n1-c1ccccc1)N1CCCCC1`: the survival is inactive: 73%.
On to `COc1ccc(OC)c(-c2noc(N3CCN(c4cccc(C(F)(F)F)c4)CC3)n2)c1`, for which the survival was inactive: 124%.
On to `CCOc1ccc(-c2cc(C(=O)NCCc3ccc(C)cc3)c3ccccc3n2)cc1`, for which the survival is active: 52%.
The figure for `Cc1cccc(-n2c3nc(=O)[nH]c(=O)c-3cc3ccc(Cl)cc32)c1C` is inactive: 86%; for `O=C(CC1(O)C(=O)Nc2ccccc21)c1ccccc1O` (configuration not stated) it is inactive: 92%.
The figure for `CCC(=O)Oc1c(Sc2ccc(C)cc2)c(C)nn1-c1ccccc1` is inactive: 71%.
In the case of `Cc1cc(-c2ccccc2)nc2cc(C(N)=O)nn12`, the survival is inactive: 71%.
Then `COc1ccc(CNS(=O)(=O)c2cc3c(cc2Cl)NC(=O)CO3)cc1`, with inactive: 89%.
Then `O=C(c1cc(-c2ccc(Br)cc2)n[nH]1)N1CCN(S(=O)(=O)c2ccc(Cl)s2)CC1`, with inactive: 87%.
Then `CC(C)CC(=O)Nc1ccc2nc(SCC(=O)N3CCOCC3)sc2c1`, with inactive: 99%.
Take `NCC(O)CN(c1ccccc1)c1ccccc1` (configuration not stated): the survival is inactive: 79%.
The figure for `CCOc1ccccc1C(=O)N1CCc2cc(OC)c(OC)cc2C1COc1ccc(OC)cc1` (configuration not stated) is inactive: 67%.
The figure for `Cc1ccc(-c2nc3cccc(C)n3c2Nc2ccc3c(c2)OCO3)o1` is inactive: 92%.
For `COc1cccc(CNC(=O)Cn2ncn3c(cc4ccccc43)c2=O)c1`, the survival is inactive: 72%.
Then `Cc1nn(-c2ccccc2)c(OC(=O)c2ccc(Cl)cc2)c1S(=O)(=O)c1ccccc1`, with inactive: 79%; and `Cn1c(=O)c2c(nc(N3CCOCC3)n2Cc2ccccc2F)n(C)c1=O`, with inactive: 71%.
Turning to `O=C(CSc1nc2ncccc2o1)Nc1ccc(Cl)cc1F`, the survival is inactive: 70%.
As for `O=C(Nc1ccccc1C(F)(F)F)C1CCN(S(=O)(=O)c2ccccc2)CC1`, the survival is active: 49%.
For `CCNc1nc2c(c(=O)n(C)c(=O)n2C)n1CC`, the survival is inactive: 98%.
Consider `CCC(=O)Nc1nnc(SCCOC)s1`, for which the survival is inactive: 85%.
For the compound `CCN(CC)c1ccc(-n2nc3cc(C)c(NC(C)=O)cc3n2)cc1`, the survival is inactive: 92%.
The figure for `COc1ccc(NC(=O)CSc2nc3ccccc3n2CC(=O)N(C)C2CCCCC2)cc1` is inactive: 126%; for `COc1ccc(NC(=O)c2cc(S(=O)(=O)N3CCCC(C)C3)cn2C)c(OC)c1` (configuration not stated) it is inactive: 87%; for `Cc1cc(Cl)ccc1NS(=O)(=O)c1c(C(=O)N2CCCCCC2)c(C)n(C)c1C` it is inactive: 91%.
Then `COc1cc(C2c3c(-c4cc(C)ccc4O)n[nH]c3C(=O)N2Cc2ccco2)cc(OC)c1OC` (configuration not stated), with inactive: 66%; and `COC(=O)CSc1nc2sc3c(c2c(=O)n1-c1ccccc1)C(C)CCC3` (configuration not stated), with inactive: 62%; and `CC(C)Oc1ccc(C(=O)Nc2nnc3n2CCS3)cc1`, with inactive: 124%.
Turning to `O=C(Cn1cc(SCc2ccc(Cl)cc2)c2ccccc21)N1CCOCC1`, the survival is inactive: 79%.
On to `CCCc1nn2c(=O)cc(COC(=O)c3cccc(NC(=O)c4ccc(OCC)cc4)c3)nc2s1`, for which the survival is active: 0%.
The figure for `O=C(CSc1nc(O)cc(=O)[nH]1)Nc1ccccc1` is inactive: 82%; for `CC(NS(=O)(=O)c1ccc2c(c1)CCN2C(=O)CCCC(=O)O)c1ccccc1` (configuration not stated) it is inactive: 86%.
Then `N#Cc1nc(/C=C/c2ccc(F)cc2)oc1N1CCCCCC1`, with inactive: 59%; and `CCc1c(C)sc(NC(=O)c2cc3nc(-c4ccc(OC)cc4)cc(C(F)(F)F)n3n2)c1C(=O)OC`, with inactive: 71%; and `CCN(CC)c1ccc(NC(=O)Cn2nc3c(cc2=O)CCCC3)c(C)c1`, with inactive: 91%.
Turning to `COc1cc(OC)cc(C(=O)N2CCN(C(=O)COc3ccc(C)cc3)CC2)c1`, the survival was inactive: 57%.
The figure for `COc1cccc(-n2c(SCC(=O)Nc3ccc4c(c3)OCO4)nc3c([nH]c4ccccc43)c2=O)c1` is inactive: 94%; for `COc1ccc(-n2nc(C(=O)Nc3cc(C)c(Cl)cc3OC)c3c4ccccc4n(C)c3c2=O)cc1` it is inactive: 94%.
Turning to `Cc1ccc(C)c(Cn2c3ccccc3c3cnn(CC(=O)NC4CCCCCC4)c(=O)c32)c1`, the survival was inactive: 82%.
Regarding `Cc1ccc(-c2c3c(=O)n(C)c(=O)n(C)c3c3c(-c4cccc(C)c4)nc4ccccc4n23)cc1`, the survival is inactive: 81%.
As to `COC(=O)c1ccccc1NC(=O)c1ccc2c(c1)CCN2S(=O)(=O)c1ccc(Cl)cc1`, the survival was inactive: 69%.
The figure for `O=c1n(Cc2ccccc2)nc2n1-c1cc(Cl)ccc1OC2` is inactive: 70%.
The figure for `Cc1c2cnn(-c3ccccc3)c(=O)c2c(C)n1CCCC(=O)Nc1cccc(F)c1` is inactive: 70%.
Then `O=S(=O)(c1cccc(Cl)c1)n1c(/C=C/c2ccccc2Cl)nc2ccccc21`, with inactive: 68%; and `COc1ccc(CN(Cc2ccco2)C(=O)COc2ccccc2Cl)cc1`, with inactive: 51%; and `COc1ccc(-c2cc(OC(=O)c3cccc(Cl)c3)c3c(C)oc(C)c3c(=O)c2)cc1OC`, with inactive: 77%.
For `COc1ccc(-n2ccn3c(CC(C)(C)CC(=O)O)nnc3c2=O)cc1`, the survival is inactive: 68%.
Turning to `Cc1ccc(NC(=O)CCCn2c(=O)c3cccn3c3cccnc32)c(C)c1`, the survival was inactive: 87%.
Then `CCC(Sc1nc2nccnc2c(=O)n1Cc1ccc(Cl)cc1)C(=O)NC1CCCCC1` (configuration not stated), with active: 19%; and `O=c1c(-c2cc(-c3ccccc3)nc3c2COc2ccc(Cl)cc2-3)coc2ccccc12`, with inactive: 75%; and `Cc1ccc(-c2cnc(C3CC3)o2)cc1S(=O)(=O)Nc1ccc(F)cc1Cl`, with inactive: 105%.
Then `CCOc1ccc(NC(=O)c2cnn3c2NC(C)=C(C(=O)Nc2ccc(Cl)cc2)C3c2ccc(OC)c(OC)c2)cc1` (configuration not stated), with inactive: 59%; and `COc1ccc(OC)c(N(C)S(=O)(=O)c2ccc3c(c2)NC(=O)CC(=O)N3)c1`, with inactive: 94%.
On to `COc1ccc(C)cc1NC1(c2ccccc2)C(=O)c2ccccc2C1=O`, for which the survival was inactive: 75%.
Turning to `COc1ccc2nc(N3CCN(C(=O)CS(=O)(=O)c4ccc(C)cc4)CC3)sc2c1`, the survival is inactive: 119%.
`Cc1ccccc1NC(=O)NC1(C(=O)N2CCc3ccccc32)CCCCC1`: the survival is inactive: 91%.
Then `Cc1ccccc1NC(=O)c1sc2nc3n(c(=O)c2c1C)N=C(c1ccccc1)CS3`, with inactive: 88%.

The values above are taken from PubChem BioAssay AID463173 (ICCB-Longwood Screening Facility, Harvard Medical School, 2010).
